Measurements as given in PubChem BioAssay AID588342 (National Center for Advancing Translational Sciences (NCATS), 2011).
The whole screen tested about 360,000 compounds, of which about 25,000 (6.9%) were called active. Inconclusive results, whose numbers are uncertain, are shown with a selection of clear calls. The call rests on the fitted dose curve; in most records, active means well fitted inhibition curve with a large enough effect; inconclusive means small, poorly fitted or top-dose-only effect; inactive means flat fitted curve, though single readings scatter. A potency beside an inconclusive call is a rough fit, not a confirmed value.

Target: Luciferin 4-monooxygenase (Photinus pyralis) (UniProt P08659)
Assay: qHTS profiling assay for firefly luciferase inhibitor/activator using purifed enzyme and Km concentrations of substrates (counterscreen for miR-21 project); further: nearly all actives have a fitted effect of over 55% in size;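 on activity change, negative = inhibition: plate controls were vehicle for no effect and reference inhibitor for full effect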
Settings: purified FLuc, luminescence inhibition; series mostly up to 57.5 µM; activity change, negative = inhibition: at the top concentration
Procedure, shortened: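 Purified P. pyralis luciferase (10nM final) with 10uM D-luciferin and 10uM ATP (Km levels) in 50mM Tris acetate pH 7.5, 10mM Mg acetate, 0.01% Tween-20, 0.05% BSA; qHTS 6-point titration, ~60 µM downward; luminescence read.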
Potency means the concentration at half of the fitted maximal effect; tags describe the fitted curve by direction and shape.

Chain of UniProt P08659 (P08659 whole entry, looked up): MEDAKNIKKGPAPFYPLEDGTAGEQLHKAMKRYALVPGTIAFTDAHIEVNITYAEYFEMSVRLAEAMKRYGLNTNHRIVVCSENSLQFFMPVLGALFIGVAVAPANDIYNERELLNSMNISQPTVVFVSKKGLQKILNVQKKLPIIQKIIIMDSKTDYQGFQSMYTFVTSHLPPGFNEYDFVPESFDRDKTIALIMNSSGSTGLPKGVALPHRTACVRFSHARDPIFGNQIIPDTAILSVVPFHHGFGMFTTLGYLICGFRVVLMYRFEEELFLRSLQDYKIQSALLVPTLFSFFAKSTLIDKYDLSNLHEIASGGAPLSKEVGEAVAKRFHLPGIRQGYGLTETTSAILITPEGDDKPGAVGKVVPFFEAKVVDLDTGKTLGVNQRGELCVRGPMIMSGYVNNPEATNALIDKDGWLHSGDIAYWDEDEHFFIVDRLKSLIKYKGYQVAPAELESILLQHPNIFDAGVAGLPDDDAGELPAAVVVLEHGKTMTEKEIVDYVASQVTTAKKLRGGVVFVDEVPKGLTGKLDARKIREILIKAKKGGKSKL

Row | Compound | activity change, negative = inhibition | Potency
1 | COc1cc(Nc2nc3ccc(Cl)cc3n3cnnc23)cc(OC)c1OC | inactive: -3.86% | –
2 | CCC(=O)/C(=C(/O)c1ccccc1)c1nc2ccccc2[nH]1 | – | inconclusive: 37.9 µM [inhibitor, single point]
3 | COc1ccc(-c2cc(C(=O)OCC(=O)c3cccc([N+](=O)[O-])c3)c3cc(C)ccc3n2)cc1 | – | inconclusive: 8.49 µM [inhibitor, partial curve, poor fit]
4 | COc1ccc2nc(N3CCC(C)CC3)c(C#N)cc2c1 | – | active: 10.7 µM
5 | CCOC(=O)N1CCN(C(=O)c2cccc(-n3c(=S)[nH]c4cc(Cl)ccc4c3=O)c2)CC1 | – | inconclusive: 33.8 µM [inhibitor, partial curve, poor fit]
6 | S=C(Nc1ccccc1)Nc1ccc(Cl)cn1 | – | inconclusive: 37.9 µM [inhibitor, single point]
7 | Cc1cc(C(=O)COC(=O)C2=COCCO2)c(C)n1-c1ccc2c(c1)OCO2 | – | inconclusive: 19 µM [inhibitor, partial curve, poor fit]
8 | CCCn1c(NCc2ccc(N(CC)CC)cc2)nc2ccccc21 | inactive: -3.91% | –
9 | O=C(CN1C(=O)/C(=C\c2ccccc2Br)Oc2ccccc21)NCCCN1CCOCC1 | – | inconclusive: 8.49 µM [inhibitor, partial curve]
10 | O=C(Nc1ccon1)c1csc2c1CCCC2 | – | inconclusive: 30.1 µM [inhibitor, partial curve, poor fit]
11 | O=C(Nc1ccc(C(=O)N2CCOCC2)cc1)Nc1cccc(Cl)c1 | – | active: 15.1 µM
12 | Cn1nnc2c[n+](CC(=O)c3ccc4ccccc4c3)cc(Br)c21 | – | inconclusive: 23.9 µM [inhibitor, single point]
13 | O=C(COC(=O)C1=COCCO1)Nc1ccc(OC(F)F)cc1 | inactive: -13.5% | –
14 | O=C(CCNC(=O)c1ccco1)Nc1ccc(Cl)cc1F | inactive: 4.3% | –
15 | COc1ccc(/C=N/n2cc(-c3ccccc3)nc2N)cc1 | – | inconclusive: 26.9 µM [inhibitor, single point]
16 | COc1cccc(-c2csc(N3CCN(C(=S)Nc4ccc(Cl)cc4)CC3)n2)c1 | – | inconclusive: 30.1 µM [inhibitor, partial curve, poor fit]
17 | O=c1c2cnn(-c3ccc(Cl)cc3)c2ncn1Cc1cccc(C(F)(F)F)c1 | inactive: -4.02% | –
18 | O=C(NCCSc1ccccc1)c1ccccc1 | – | inconclusive: 0.675 µM [inhibitor, partial curve, poor fit]
19 | CN(C)c1ccc(CNC(=O)c2cc(S(=O)(=O)N3CCCC3)cn2C)cc1 | – | inconclusive: 26.9 µM [inhibitor, partial curve, poor fit]
20 | COc1cccc(-c2nc(-c3ccc4c(c3)NC(=O)CO4)cs2)c1 | – | inconclusive: 4.78 µM [inhibitor, full curve]
21 | O=C(O)c1cnn(-c2nc(-c3ccc(Cl)c(Cl)c3)cs2)c1C(F)(F)F | – | inconclusive: 21.3 µM [inhibitor, single point]
22 | CCN(CC)c1ccc(/C=N/NC(=O)Cc2nnc(NC(=O)Nc3ccccc3)s2)cc1 | – | inconclusive: 26.9 µM [inhibitor, partial curve, poor fit]
23 | O=C(CCCN1C(=O)/C(=C/c2ccccc2)SC1=S)NCCCn1ccnc1 | – | inconclusive: 37.9 µM [inhibitor, partial curve, poor fit]
24 | CC(=O)N1c2c(cc(Br)cc2S(=O)(=O)N2CCN(c3cccc(Cl)c3)CC2)CC1C (stereo unspecified) | inactive: -9.69% | –

Row | Compound | activity change, negative = inhibition | Potency
25 | O=C(O)c1cc(-c2ccc(/C=N/NC(=S)Nc3ccccc3)o2)ccc1Cl | – | inconclusive: 26.9 µM [inhibitor, single point]
26 | Nc1nc(SCc2ccc(Cl)cc2Cl)ns1 | – | inconclusive: 30.1 µM [inhibitor, single point]
27 | CCOc1cccc(CN2CCC(n3nccc3NC(=O)CCCc3ccccc3)CC2)c1 | inactive: -0.973% | –
28 | CCOc1ccc(Nc2nc(N)nc(CSC(=S)N3CCOCC3)n2)cc1 | – | inconclusive: 26.9 µM [inhibitor, single point]
29 | c1ccc(-c2nnc(CSc3nncs3)o2)cc1 | – | inconclusive: 37.9 µM [inhibitor, single point]
30 | CCNC(=S)SCCOc1ccc(C)cc1 | – | inconclusive: 21.3 µM [inhibitor, single point]
31 | O=C(CN1C(=O)COc2ccc(S(=O)(=O)N3CCOCC3)cc21)N1CCN(c2ccc(F)cc2)CC1 | inactive: -1.51% | –
32 | CCC(=O)c1ccc(OCC(=O)OCC(=O)Nc2sccc2C(N)=O)cc1 | – | inconclusive: 19 µM [inhibitor, partial curve]
33 | CCN(CC)Cc1c(O)ccc2c([N+](=O)[O-])c(C)n(-c3ccc(OC)cc3)c12 | – | inconclusive: 8.49 µM [inhibitor, partial curve, poor fit]
34 | CCOc1ccc(-c2ccc(SCc3ccccn3)nn2)cc1 | – | active: 13.5 µM
35 | CCOC(=O)CN1C(=O)/C(=C/c2ccccc2Br)Oc2ccccc21 | – | inconclusive: 26.9 µM [inhibitor, single point]
36 | CCCN(C(=O)c1ccco1)c1nnc(-c2ccccc2C)s1 | – | active: 12 µM
37 | COc1ccc(C(=O)Nc2ccc(C3(C#N)CCCC3)cc2)cc1OC | – | active: 10.7 µM
38 | COc1ccc(OC)c2c1C(=O)C(Cl)=C(Cl)C2=O | – | inconclusive: 5.36 µM [inhibitor, partial curve]
39 | Cc1ccc(NC(=O)CN2CCCCCC2)cc1[N+](=O)[O-] | – | inconclusive: 30.1 µM [inhibitor, single point]
40 | Cc1cc2ccccc2c(=O)n1CC(=O)N(C)c1ccc(F)cc1 | inactive: -0.569% | –
41 | Cc1ccc(-c2c(C(=O)N/N=C/c3ccc(OC(C)C)cc3)nnn2-c2nonc2N)cc1 | – | inconclusive: 23.9 µM [inhibitor, single point]
42 | COc1ccccc1NC(=O)CSc1oc(-c2cccs2)nc1S(=O)(=O)c1ccccc1 | inactive: 2.25% | –
43 | COc1ccc(NS(=O)(=O)c2ccc(NC(=S)NC(=O)c3cccnc3)cc2)nn1 | – | inconclusive: 37.9 µM [inhibitor, partial curve, poor fit]
44 | COc1cccc(C(=O)N/N=C/C(Br)=C/c2ccccc2)c1 | – | active: 10.7 µM
45 | Cc1cc(C)c(S(=O)(=O)NCCc2ccncc2)c(C)c1 | inactive: 6.29% | –
46 | COCc1cc(C)nc2sc(C(=O)Nc3ccccc3C)c(N)c12 | – | inconclusive: 21.3 µM [inhibitor, partial curve, poor fit]
47 | COc1ccc(C(=O)NC(=S)Nc2cccnc2)cc1OC | inactive: -21% | –
48 | O=c1c(Cl)c(Cl)cnn1Cc1nnc(-c2ccc(Cl)cc2)o1 | – | inconclusive: 23.9 µM [inhibitor, single point]

Row | Compound | activity change, negative = inhibition | Potency
49 | CCN1CCN(C(=O)c2cccc(OC3CCN(S(=O)(=O)N(C)C)CC3)c2)CC1 | – | inconclusive: 21.3 µM [inhibitor, partial curve, poor fit]
50 | CCCCOC1CC(c2ccc(OCc3ccc(OC)cc3)c(OC)c2)N(C)O1 (stereo unspecified) | – | inconclusive: 33.8 µM [inhibitor, partial curve, poor fit]
51 | COc1ccc(C2CC(c3ccc4ccccc4c3)=NN2C(=O)CN2CCC(C(N)=O)CC2)cc1 (stereo unspecified) | – | inconclusive: 23.9 µM [inhibitor, single point]
52 | Cc1ccc(NC(=O)CCn2nnc3ccccc32)cc1 | – | inconclusive: 19 µM [inhibitor, partial curve, poor fit]
53 | CCOc1ccc(S(=O)(=O)NCC(c2ccco2)S(=O)(=O)c2ccc(F)cc2)cc1 (stereo unspecified) | inactive: -8.27% | –
54 | C#CCn1c(=NC(=O)c2cccs2)sc2cccc(OC)c21 | – | inconclusive: 6.01 µM [inhibitor, partial curve]
55 | CN(C)S(=O)(=O)c1cccc(NC(=O)COC(=O)/C=C/c2ccc(Br)o2)c1 | – | inconclusive: 16.9 µM [inhibitor, partial curve]
56 | Cc1ccsc1/C=N/Nc1nc(Cl)c(Cl)cc1Cl | – | inconclusive: 10.7 µM [inhibitor, partial curve]
57 | CN1CCN(c2ccc(NC(=O)c3ccc(-c4cccc([N+](=O)[O-])c4)o3)cc2)CC1 | – | active: 15.1 µM
58 | CN(C)CCn1c2c(c(SCC(=O)Nc3ccc(F)cc3F)nc1=O)CCC2 | inactive: -1.11% | –
59 | O=C(NCCc1ccccc1)c1ccc(CSc2nc3ccncc3n2Cc2ccc(F)cc2)cc1 | inactive: -2.46% | –
60 | COC(=O)c1sc2ccccc2c1N | – | inconclusive: 30.1 µM [inhibitor, partial curve]
61 | COc1ccc(C(=O)Nc2nnc(C(F)(F)F)s2)cc1 | – | active: 5.36 µM
62 | CCCCSCCCNC(=O)C1CCC(CNS(=O)(=O)c2c(C)cc(C)cc2C)CC1 (stereo unspecified) | – | inconclusive: 26.9 µM [inhibitor, partial curve, poor fit]
63 | CC(=O)c1ccc(NC(=O)CCc2c(C)nn(-c3ccc(N4CCCCC4)nn3)c2C)cc1 | – | active: 8.49 µM
64 | Cc1cc(C)cc(C(=O)NCCC(=O)N2CCC3(CC2)NCCc2[nH]cnc23)c1 | inactive: -0.764% | –
65 | O=C1CC(c2cccc(Cl)c2)c2cc3c(cc2N1)CCC3 (stereo unspecified) | inactive: 0.769% | –
66 | C=CCc1ccc(OCCCOc2ccc(C)cc2OC)c(OC)c1 | – | inconclusive: 26.9 µM [inhibitor, single point]
67 | O=C1/C(=C/c2ccc(N3CCOCC3)o2)SC(=Nc2ccccc2)N1CCc1c[nH]c2ccccc12 | – | inconclusive: 7.57 µM [inhibitor, partial curve, poor fit]
68 | Cc1csc(NC(=O)/C=C/c2ccc(C)o2)n1 | – | active: 10.7 µM
69 | COc1ccc(NC(=O)CCSc2ccc(F)cc2)cc1 | – | active: 15.1 µM
70 | Clc1ccc(Cc2nnc(-c3cccs3)o2)cc1 | – | active: 19 µM
71 | O=C(Nc1nncs1)c1cc2c(s1)CCC2 | – | active: 6.75 µM
